About 60 (0.1%) of roughly 46,000 compounds were called active. Inconclusive results (about 3%) are left out. Calls follow the shape of the dose curve; as a rule, active = well fitted inhibition curve with a large enough effect; inconclusive = small, poorly fitted or top-dose-only effect; inactive = no such curve, though single readings can be large or run the other way. The list shows a part of the results.
assay: Primary qHTS assay for Inhibitors of ovarian cancer metastasis using an organotypic tumor microenvironment (TME) model.; also: nearly all actives have a fitted effect of over 65% in size;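 as to activity change, negative = inhibition: plate controls were DMSO wells for no effect and tomatine positive control wells for full effect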; conditions: SKOV3ip1-GFP adhesion/invasion on 3D omental model, fluorescence; series mostly up to 45.8 µM; activity change, negative = inhibition: at the top concentration
Method in brief: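 qHTS, 4-pt dose (0.36-46 umol/L); SKOV3ip1-GFP, 1,200 cells/well, no FBS; primary omental fibroblast/mesothelial co-culture 48 h pre-grown; 2 h RT + 16 h 37 C; PBS wash, 4% PFA; GFP count 488/509 nm.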

Activity change, negative = inhibition, inactive:
Cc1cc2oc(C(=O)Nc3sc4c(c3C(=O)NCC3CCCO3)CCCC4)cc(=O)c2cc1C (stereo not given) -7.85%, Cc1ccc(C)c(N2CCN(C(=O)NCc3noc4ccccc34)CC2)c1 6.58%, CCS(=O)(=O)N1CCc2cc(C(=O)Nc3cc(C)cc(C)c3)ccc21 -3.39%, COC(=O)c1ccc2c(c1)N(CC(=O)Nc1ccc(C)c(C)c1)C(=O)c1ccccc1S2 -0.437%, CCCCN(CC)CCNC(=O)CN1C(=O)COc2ccc(S(=O)(=O)N3CCOCC3)cc21 -1.85%, COc1ccc(OC)c(CCNc2nc3cc(OC)c(OC)cc3c3nc(-c4cccnc4)nn23)c1 1.23%, CCc1c(C)sc(NC(=O)c2cc(-c3ccc(OC)c(OC)c3)on2)c1C#N 2.67%, COc1ccc(CCNC(=O)c2ccc3[nH]c(C)c(C)c3c2)cc1OC 16.4%, O=C(Nc1ccccc1)c1ccc(Cl)c(S(=O)(=O)Nc2ccccc2)c1 3.45%, Cc1ccc(C(=O)c2cn(Cc3ccccc3)c3c(F)cc(F)cc3c2=O)cc1 -1.1%, COc1ccc(S(=O)(=O)N2CCCCC2)cc1C(=O)NC1CCS(=O)(=O)C1 (stereo not given) 8.23%, CCOc1ccccc1CNC(=O)CN1C(=O)c2cccnc2Oc2ccc(Cl)cc21 0.016%, COc1ccc2nc(N(Cc3cccnc3)C(=O)c3ccc(Cl)cc3)sc2c1 3.88%, Cn1c(=O)c(=O)n(C)c2cc(N3CCCC3)c(NC(=O)c3ccccc3Cl)cc21 7.15%, Cc1cc(Nc2cccc(Cl)c2)nc2ccc(NC(=O)Cc3c(F)cccc3Cl)cc12 -23.3%, CCC1Oc2ccccc2N(CC(=O)NCc2ccccc2)C1=O (stereo not given) 13.9%, COc1ccc(N2CCN(C(=O)c3cn(C)c4ccc(S(=O)(=O)N5CCOCC5)cc4c3=O)CC2)cc1 1.04%, CCN1C(=O)C2(c3ccccc31)c1c(oc3ccccc3c1=O)C(=O)N2CCOC (stereo not given) 61.5%, CCC(C(=O)O)C1CCC(C)C(C(C)C(O)C(C)C(=O)C(CC)C2OC3(C=CC(O)[C@@]4(CC[C@](C)(C5CC[C@@](O)(CC)C(C)O5)O4)O3)C(C)CC2C)O1 (stereo not given in full) -29.1%, N[C@H](CSC(c1ccccc1)(c1ccccc1)c1ccccc1)C(=O)O 0.819%, CCCCN(C)C(=O)c1ccc2c(c1)NC(=O)C(CC(C)C)N2 (stereo not given) -6.5%, O=C(Nc1ccc(Br)cc1)c1cc(S(=O)(=O)N2CCc3ccccc32)ccc1F 0.694%, CCOc1ccccc1CNC(=O)CN1C(=O)c2cccnc2Oc2ccc(C)cc21 -8.94%, CCn1c(=O)c2sccc2n2c(CCCC(=O)Nc3ccc(Oc4ccccc4)cc3)nnc12 19.8%, Cc1c(C(=O)Nc2ccccc2F)sc2nc3n(c(=O)c12)CCC3 -3.79%, Cc1cc(C)cc(OCC(=O)N(Cc2ccco2)Cc2ccccc2Cl)c1 21.3%, Cc1ccc(-c2nc(-c3cccs3)c(-c3cccs3)[nH]2)cc1 -3.61%, Cc1ccc(S(=O)(=O)c2nnn3c2nc(NC2CCCCC2)c2sccc23)cc1C 25.2%, Cc1ccc(NC(=O)c2nc(S(C)(=O)=O)ncc2N(Cc2ccco2)Cc2ccco2)cc1 -0.49%, O=C(Nc1ncc(Cc2ccccc2Cl)s1)c1ccc2c(c1)CC(c1ccccc1)OC2=O (stereo not given) -0.887%, CCCCN(CC)CCCNC(=O)c1nn(-c2ccc(OC)cc2)c(=O)c2c1c1ccccc1n2C 1.59%, COc1ccc(CC(=O)Nc2nnc3n2CCS3)cc1OC -14.6%, CCc1ccccc1NC(=O)Cn1nnc(C(=O)NCc2cccc(OC)c2)c1N -9.52%, COc1ccc(C)cc1-n1c(SCC(=O)NCc2ccco2)nc2c([nH]c3ccccc32)c1=O -2.21%, CC1CCc2nc3ncn(Cc4cccc(F)c4)c(=O)c3cc2C1 (stereo not given) -13.1%, Cc1ccc(NC(=O)Cn2c(=O)n(CC(=O)NCCc3ccccc3)c(=O)c3ccccc32)cc1 5.36%, COCCNC(=O)c1cc(-c2cccc(Cl)c2)on1 28.5%, CCCCN(CC)CCCNC(=O)c1sc2nc3n(c(=O)c2c1C)CCCCC3 -14.7%, Cc1ccc(CCNC(=O)CCCn2c(=O)c3cccn3c3ccc(F)cc32)cc1 -2.83%, Cc1ccc(-n2nc(C(=O)N(C)c3ccccc3Cl)c3c4ccccc4n(C)c3c2=O)cc1 4.3%, COC(=O)c1cc2occc2n1Cc1nc(-c2ccc(Cl)cc2)oc1C 0.367%, Cc1ccc(NC(=O)Cn2cc(S(=O)(=O)Cc3ccccc3)c3ccccc32)cc1C -8.44%, CCc1ccc(S(=O)(=O)c2cn(C)c3ccc(C)cc3c2=O)cc1 -6.89%, CCc1ccccc1NC(=O)Cn1nc(C)c2nn(-c3ccc(Cl)cc3)c(C)c2c1=O -70.8%, COc1cc2[nH]c(=O)n(CCCC(=O)N(C)Cc3ccccc3)c(=O)c2cc1OC 8.69%, CCOCCCNC(=O)CN1C(=O)CCn2nc(-c3cccn3C)cc21 -13.5%, COc1ccc(NC(=O)CN2C(=O)C(c3ccccc3)=NC23CCC(C)CC3)cc1Cl (stereo not given) -3.07%, CSc1ccc(CCNC(=O)C2CCCN(S(=O)(=O)N(C)c3ccc(F)cc3)C2)cc1 (stereo not given) 9.57%, CCOC(=O)C(Cc1ccccc1)NC(=O)Cn1nnc(-c2ccc(C)cc2)n1 (stereo not given) 2.55%, CN(C)S(=O)(=O)N(CC(=O)NCCSCc1ccc(Cl)cc1Cl)c1ccccc1 29%, O=C1Cc2cc(S(=O)(=O)Nc3cccc(C(F)(F)F)c3)cc3c2N1CCC3 3.63%, CC(C)c1ccc(NC(=O)c2cc(S(=O)(=O)NCCc3ccccc3)ccc2F)cc1 -19.6%, Cc1cccn2c(=O)cc(COc3cccc(NC(=O)Nc4cccc(Cl)c4)c3)nc12 47.4%, COc1cc(C=CC(=O)O)ccc1O 0.771%, Cc1nn(CC(=O)N2CCN(c3ccccc3F)CC2)c(=O)c2cccn12 -8.63%, CCN(CC)c1ccc2nc3c(=O)n(C)c(=O)n(C)c3nc2c1 -21.9%, CC(C)c1ccc(NC(=O)[C@H]2O[C@@H]3OC(C)(C)O[C@@H]3[C@H]3OC(C)(C)O[C@H]32)cc1 4.12%, COc1ccc(CNC(=O)CCn2c(=O)c3cccn3c3ccc(F)cc32)cc1OC -6%, CCc1ccc2occ(CC(=O)Nc3nnc(SC)s3)c2c1 -15.4%, CCOc1ccc(-c2nnc(SCC(=O)NC3CCCCC3)nc2-c2ccc(OCC)c(OC)c2)cc1OC 2.51%, CC(C)c1nn2c(=O)cc(COC(=O)c3cccc(NC(=O)CCc4ccccc4)c3)nc2s1 5.17%, O=C(CSc1oc(-c2ccc(F)cc2)nc1S(=O)(=O)c1ccccc1)c1ccc(Cl)cc1 9.43%, CCN(Cc1ccccc1)C(=O)Cn1c(=O)cc(C)c2c(C)nn(-c3cccc(F)c3)c21 2.96%, COc1ccc(Cc2c(C)nn(-c3nc(C)c(C(=O)Nc4cccc(C(C)=O)c4)s3)c2C)cc1 5.62%, CCc1ccc2nc(N(Cc3cccnc3)C(=O)Cc3ccccc3)sc2c1 -13.3%, O=C(O)c1ccc(Nc2ncnc3scc(-c4ccccc4)c23)cc1 -7.94%, Cn1c(=O)c2c(-c3ccccc3)n(-c3cccc(C#N)c3)cc2n(C)c1=O 8.52%, COc1ccc(-c2ccc(=O)n(CC(=O)Nc3ccc(Br)cc3F)n2)cc1 3.23%, CCS(=O)(=O)c1nc(S(=O)(=O)c2ccc(Cl)cc2)c(NCc2ccc(Cl)cc2)s1 2.4%, CCOC(=O)c1[nH]c(C)c(CCC(=O)N2CCN(c3ccc(Cl)cc3)CC2)c1C 5.12%, O=C(NCc1ccccc1)c1c2c(nc3ccccc13)C(=O)N(C1CCCCC1)C2 -1.51%, Cc1ccc2c(c1)N(C(=O)c1ccc(F)cc1)C(C)(C)CC2(C)c1ccccc1 (stereo not given) 3.64%, COC(=O)c1cc(OC)c(OC)cc1NC(=O)c1ccc2c(c1)CCN2S(C)(=O)=O -1.06%, CCC(C(=O)NCc1ccccc1Cl)n1c(=O)c2cccn2c2ccccc21 (stereo not given) 8.46%, O=C(Nc1cccc(-c2nc3ccccc3o2)c1)c1cccc(Br)c1 0.42%

outcome, inactive:
O=S(=O)(NCC(c1ccco1)N1CCN(c2ccc(F)cc2)CC1)c1cc(F)ccc1F (stereo not given), Cn1c(=O)c2c(-c3ccc(Cl)cc3)ccnc2n(C)c1=O, CCS(=O)(=O)N1CCC2(CC1)OC(=O)C(C)=C2C(=O)NCc1ccc(OC)c(OC)c1, COc1ccc(OC)c(NC(=O)N2CCC3(CC2)Oc2ccccc2C(=O)N3Cc2ccccc2F)c1, COc1ccc(-c2noc(CC(=O)N(C)c3cc(Cl)c(OC)cc3OC)n2)cc1, COc1ccc(NC(=O)CN2C(=O)C(=O)c3ccccc32)c(OC)c1, Cc1ccc(OCCSc2nc3ccccc3n2CCC(=O)O)cc1, CN(Cc1ccccc1)c1nc2c(S(=O)(=O)c3ccccc3)nnn2c2ccsc12, COc1ccc(CNC(=O)CCc2c(C)nc3c4cccnc4nn3c2C)cc1, O=C(CN1C(=O)COc2ccc(Cl)cc21)Nc1cccc(C(=O)O)c1, CCOC(=O)c1ccc(N2C(=O)c3n[nH]c(C)c3C2c2ccc(CC)cc2)cc1 (stereo not given), C[C@H](NC(=O)OC(C)(C)C)c1nnc(SCc2ccc(Cl)cc2Cl)o1, COc1ccc(C(C)C)cc1S(=O)(=O)NCCc1c(C)[nH]c2c(Cl)cccc12, COc1ccc(-n2ccnc(NCCc3ccc(S(N)(=O)=O)cc3)c2=O)cc1Cl, Cc1cc(OC(C)C(=O)N(Cc2ccco2)Cc2ccco2)cc(C)c1Cl (stereo not given), CCN1C(=O)c2ccccc2S(=O)(=O)c2ccc(C(=O)NCc3ccc(C)cc3)cc21, CC(C)c1ccc(NC(=O)C2CCC(CNS(=O)(=O)c3ccc4c(c3)CCCC(=O)N4)CC2)cc1 (stereo not given), CCn1nc(C)c(CCN(C)C(=O)Nc2cc(Cl)c(OC)cc2OC)c1C, CCc1ccccc1N1C(=O)N(Cc2cc(=O)n3ccccc3n2)c2ccccc2S1(=O)=O, CCOC(=O)c1c(Nc2cc(C)cc(C)c2)nnc(-c2ccccc2)c1-c1ccccc1

From PubChem BioAssay AID1963576 (National Center for Advancing Translational Sciences (NCATS), 2024)
